From publication PMC4336329 (PLoS ONE, 2015) come the findings set out here.

Molecules are shown by their SMILES. Among all 310,000 compounds or so, about 2,200 (0.71%) showed an effect of 50% or more. The effect is printed as a negative number. Some of the results follow.

Chain of human ether-à-go-go-related gene (hERG) potassium channel (Q12809 whole entry, looked up): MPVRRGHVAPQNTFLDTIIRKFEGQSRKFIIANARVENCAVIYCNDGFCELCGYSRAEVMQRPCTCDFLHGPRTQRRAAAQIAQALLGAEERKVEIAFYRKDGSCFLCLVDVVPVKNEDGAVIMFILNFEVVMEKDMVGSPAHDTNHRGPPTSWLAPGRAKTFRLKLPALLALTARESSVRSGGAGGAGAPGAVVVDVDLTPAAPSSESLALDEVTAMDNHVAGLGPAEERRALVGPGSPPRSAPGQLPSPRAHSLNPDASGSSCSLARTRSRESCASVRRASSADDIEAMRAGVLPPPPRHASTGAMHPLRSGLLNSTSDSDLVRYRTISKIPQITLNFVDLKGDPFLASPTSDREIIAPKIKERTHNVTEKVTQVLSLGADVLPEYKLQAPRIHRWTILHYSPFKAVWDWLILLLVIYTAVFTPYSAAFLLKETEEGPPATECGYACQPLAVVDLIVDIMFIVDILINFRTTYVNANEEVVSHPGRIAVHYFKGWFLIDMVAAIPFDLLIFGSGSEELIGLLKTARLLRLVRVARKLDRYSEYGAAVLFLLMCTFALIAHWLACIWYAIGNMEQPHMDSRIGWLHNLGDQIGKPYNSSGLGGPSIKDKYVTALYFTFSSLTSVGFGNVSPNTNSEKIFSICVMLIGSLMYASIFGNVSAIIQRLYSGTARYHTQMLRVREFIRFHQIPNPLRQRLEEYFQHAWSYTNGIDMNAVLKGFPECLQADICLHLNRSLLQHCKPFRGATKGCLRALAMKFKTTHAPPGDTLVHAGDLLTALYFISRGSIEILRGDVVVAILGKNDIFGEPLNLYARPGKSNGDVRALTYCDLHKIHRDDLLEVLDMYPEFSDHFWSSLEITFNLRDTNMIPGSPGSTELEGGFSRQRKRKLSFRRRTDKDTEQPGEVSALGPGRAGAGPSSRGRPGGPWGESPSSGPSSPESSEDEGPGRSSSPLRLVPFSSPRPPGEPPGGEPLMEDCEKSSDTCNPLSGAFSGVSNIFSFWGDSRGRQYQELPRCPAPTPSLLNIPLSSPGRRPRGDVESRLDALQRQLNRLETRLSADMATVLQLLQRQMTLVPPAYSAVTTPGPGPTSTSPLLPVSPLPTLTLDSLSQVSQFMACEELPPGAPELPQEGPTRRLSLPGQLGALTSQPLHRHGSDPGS

This test concerns the target human ether-à-go-go-related gene (hERG) potassium channel (human, UniProt Q12809). In words: primary screen, population patch clamp on CHO cells stably expressing hERG.
Take `Cc1ccccc1Nc1nc(N)nc(COC(=O)c2cccc(S(=O)(=O)N(C)c3ccccc3)c2)n1`: the “hERG current change (%, negative = inhibition) at 1uM” value was found to be 0.0292%. For `C/C(N)=C(/C#N)C(=O)COC(=O)COc1ccc(Cl)cc1`, the “hERG current change (%, negative = inhibition) at 1uM” value stood at 4.43%. Under `Cc1ccc(/C=N/n2c(-c3ccc(Cl)cc3)n[nH]c2=S)o1` stands 9.87%; under `O=C(CSc1nnnn1C1CC1)N1CCN(c2ccccc2F)CC1`, 7.66%; under `CCOC(=O)N1CCC(NC(=O)c2ccc(CS(=O)c3ccc(Cl)cc3)o2)CC1` (stereo not shown), 15%. Under `CC(=O)Oc1ccc(/C=C2\C=C(c3ccc(C)cc3)OC2=O)cc1` stands 11.6%; under `CCCCNC(=O)c1oc2ccc(S(=O)(=O)N3CCCC3)cc2c1C`, 4.78%.

For `CCCN(CCC)CCCNC(=O)c1cc2c(=O)[nH]c3ccccc3c2s1`, the “hERG current change (%, negative = inhibition) at 1uM” value amounted to 10.3%. Turning to `CCN(CCn1cccn1)Cc1nc(-c2ccc(C(=O)OC)cc2)no1`, the “hERG current change (%, negative = inhibition) at 1uM” value is 13.2%. For `Cc1ccc(NC(=O)COC(=O)Cn2c(C)csc2=O)c([N+](=O)[O-])c1` the value was 16.5%. `CCOc1ccc(NC(=O)CCc2c(C)nn(-c3ccc(N4CCCCC4)nn3)c2C)cc1`: the “hERG current change (%, negative = inhibition) at 1uM” value worked out at 10.9%. For `CCN(CC)S(=O)(=O)c1ccc(S(=O)(=O)N2CCN(CCC#N)CC2)cc1` the value was 8.96%.

Take `CCOc1ccc(N2C(=O)C3ON(C)C(c4ccc([N+](=O)[O-])cc4)C3C2=O)cc1` (stereo not shown): the “hERG current change (%, negative = inhibition) at 1uM” value came to 15.1%. Under `CC(C)(C)C(=O)c1cn(Cc2ccccc2)c2ccccc12` stands 17.3%; under `COc1ccccc1CNC(=O)CSCc1cnn(-c2ccccc2)c1-n1cccc1`, -1.84%.

For the compound `O=C(CCc1nc(-c2ccccc2)c(-c2ccccc2)o1)OCc1ccc(Cl)cc1`, the “hERG current change (%, negative = inhibition) at 1uM” value turned out to be 9.62%. Under `O=C(c1cnccn1)N1CCN(C/C=C/c2ccccc2)CC1` stands 9.98%; under `CCOC(=O)c1sc2nc(C)nc(NCc3ccc(F)cc3)c2c1C`, 17.8%; under `Nc1cc(=O)[nH]c(SCC(=O)Nc2ccc3c(c2)CCC3)n1`, 6.83%.

On to `COc1ccc([N+](=O)[O-])cc1NC(=O)CCN1CCN(c2ccccc2OC)CC1`, for which the “hERG current change (%, negative = inhibition) at 1uM” value amounted to 6.82%. Consider `COc1ccccc1NC(=O)NNC(=O)CN1C(=O)COc2ccccc21`, for which the “hERG current change (%, negative = inhibition) at 1uM” value stood at 15.7%. Turning to `Cn1c(=O)oc2cc(S(=O)(=O)NC3CCCc4ccccc43)ccc21` (stereo not shown), the “hERG current change (%, negative = inhibition) at 1uM” value is -6.46%. Under `Cc1ccc(Cl)cc1NC(=S)NCc1cccn1C` stands 17.9%. Under `CC1CCN(CC(=O)Nc2cccc([N+](=O)[O-])c2)CC1` stands 13.6%. Under `Cc1cccc(CN2CCc3c([nH]c4ccccc34)C2CC(C)C)n1` (stereo not shown) stands 10.8%; under `CCOc1ccc(C(=O)NCC(=O)OCC(=O)N2CCCC2)cc1`, 13.2%. With `N/C(=N\OC(=O)Nc1ccccc1)c1ccno1`, the “hERG current change (%, negative = inhibition) at 1uM” value is reported as 10.3%. Under `C=C(C)CNC(=S)N/N=C(\C)c1ccc(Cl)s1` stands 12.1%; under `NC(=O)CCS(=O)(=O)CCN1CCN(S(=O)(=O)c2ccc3c(c2)CCC3)CC1`, 4.14%. Under `N#Cc1cc2c(nc1SCc1ccc(Cl)nc1)CCCCC2` stands 6.05%; under `Cc1csc(=O)n1CC(=O)OCC(=O)Nc1ccc(Cl)cc1F`, 8.55%; under `CC1CC1C(=O)OCC(=O)NC(=O)NCc1ccco1` (stereo not shown), 4.71%. For `CCc1ccc(CN2CCCC(CCC(=O)N3CCN(c4ccccn4)CC3)C2)o1` (stereo not shown) the value was -34.1%. For the compound `Nc1cc(Cl)ccc1C(=O)OCC(=O)NC1CCCCCCC1`, the “hERG current change (%, negative = inhibition) at 1uM” value was 5.48%. For `CC1Cc2ccccc2N1C(=O)CSc1nnc(NC(=O)Cc2cccs2)s1` (stereo not shown) the value was 3.74%; for `N/C(=N/OC(=O)c1ccc(Cl)cc1)c1ncc([N+](=O)[O-])s1`, 14%. For `O=C(NCc1cccnc1)C1CCN(C(=O)c2ccc(Cl)cc2Cl)CC1` the value was 11%; for `Cc1ccccc1C(=O)Nc1cccc(NC(=O)c2cccnc2)c1`, 5.01%; for `CCc1cc(=O)oc2cc(OCC(=O)NCCCn3ccnc3)ccc12`, 13.5%. In the case of `Cc1ccccc1OCc1nc2ccccc2c(=O)n1/N=C/c1ccco1`, the “hERG current change (%, negative = inhibition) at 1uM” value came out at 11.4%. For `CCOc1ccccc1Nc1cc(C)nc2nc(C)nn12` the value was 0.639%. For `NN=C(c1cccc([N+](=O)[O-])c1)c1cccc([N+](=O)[O-])c1`, the “hERG current change (%, negative = inhibition) at 1uM” value is on record as 8.63%. Under `COCCNC(=O)NC(=O)COC(=O)Cc1ccc2c(c1)OCCO2` stands -2.77%; under `O=C1OCC2=C1C(c1ccc(F)cc1)CC(=O)N2c1ccccc1` (stereo not shown), -3.54%.

Take `COc1cc2cnc(-c3ccsc3)c(-c3ccc(F)cc3)c2cc1OC`: the “hERG current change (%, negative = inhibition) at 1uM” value is 14%. For `CCCc1nnc(NS(=O)(=O)c2ccccc2)s1` the value was 12.5%; for `CCOC(=O)NC(=O)COC(=O)CCCc1nc2ccccc2s1`, 14%.

`COC(=O)CCC(=O)N(C)CC1CCCN(CCc2cccc(C(F)(F)F)c2)C1` (stereo not shown): the “hERG current change (%, negative = inhibition) at 1uM” value was -39.9%.

With `Cc1cc(C(C)(C)C)cc(C)c1C(=O)O`, the “hERG current change (%, negative = inhibition) at 1uM” value was 1.08%. `Cc1ccc(S(=O)(=O)NCC(=O)N(CC(=O)NCc2ccco2)Cc2ccccc2)cc1`: the “hERG current change (%, negative = inhibition) at 1uM” value came to 12.8%. For `CCOc1ccc(-n2ccnc2SCC(=O)N2CCCc3ccccc32)cc1` the value was 10.3%; for `O=S(=O)(NC1CCCC1)c1ccccc1Cl`, 2.51%. Under `O=C(NC1CC2CCC1C2)C1COc2ccccc2O1` (stereo not shown) stands 1.54%; under `O=C(N/N=C/c1cccnc1)c1ccco1`, 10.7%; under `COC(=O)Nc1ccc(S(=O)(=O)n2cnc3ccccc32)cc1`, -12.5%. Under `Cc1cc(C(=O)N/N=C/c2cccc3ccccc23)c(C)o1` stands 12.5%; under `Cc1cc(C)nc(SCC(=O)N/N=C/c2cccc([N+](=O)[O-])c2)n1`, 0.177%; under `CC(N=C1NS(=O)(=O)c2ccccc21)C(=O)NCc1ccc2c(c1)OCO2` (stereo not shown), 4.44%. Regarding `O=C(NC1CCc2ccccc21)c1cc(COc2ccc(F)cc2Cl)on1` (stereo not shown), the “hERG current change (%, negative = inhibition) at 1uM” value was found to be 0.491%. Under `O=C(Nc1cc(S(=O)(=O)N2CCOCC2)ccc1N1CCCC1)c1cnccn1` stands 9.29%; under `Cc1ccc(NC(=S)N2CCC(C(N)=O)(N3CCCCC3)CC2)c(C)c1`, 7.67%; under `COCCn1c(-c2ccc(-c3ccc([N+](=O)[O-])cc3Br)o2)nc2c1c(=O)[nH]c(=O)n2CC(C)C`, 4.99%. For `COc1ccc(-c2c(-c3ccc(OC)cc3O)nc(C)nc2C(F)(F)F)cc1` the value was 7.05%; for `CCCCCOc1ccc(CSC(=N)N)cc1[N+](=O)[O-].Cl`, -3.45%; for `COCCNC(=O)c1c(N)n(/N=C/c2ccc(F)cc2)c2nc3ccccc3nc12`, 8.7%. For `Cn1c2[n+](c3ccc(Cl)cc3c1=O)Cc1ccccc1-2.[Cl-]` the value was 9.34%; for `Cn1c(C(=O)Nc2ccc3c(c2)OCO3)cc2sccc21`, 1.78%; for `COC(=O)Cc1ccc(NC(=S)NCCSc2ccc(Cl)cc2)cc1`, 7.15%.

Regarding `COc1ccc(OC)c(NC(=O)Cn2c(C)nc3ccccc3c2=O)c1`, the “hERG current change (%, negative = inhibition) at 1uM” value is reported as 10.5%. For `CC(=O)c1ccc(S(=O)(=O)N2CCN(C(C)=O)CC2)cc1` the value was 9.96%; for `COc1ccccc1C(=O)NC(CCSC)C(=O)OCC(=O)N1CCCC1=O` (stereo not shown), 8.69%. Under `CCC1(CC)C(=O)C2=C3C1[C@H](C(=O)OC)C=C(C(=O)OC)C[C@H]3n1c(=O)n(-c3ccccc3)c(=O)n1[C@H]2C` (stereo partly shown) stands 8.7%; under `O=C(CS(=O)CC(=O)NC12CC3CC(CC(C3)C1)C2)Nc1ccc(F)cc1` (stereo not shown), 3.56%; under `COc1cccc(-n2c(Cc3cc(=O)[nH]c(=O)[nH]3)nnc2SCC(=O)N2CCCCC2)c1`, 8.43%. Under `O=C(COC(=O)CCc1nc2ccccc2c(=O)[nH]1)NC(c1ccccc1)c1ccccc1` stands 8.97%; under `COc1cccc(Nc2nc3ccc(C(=O)c4ccccc4)cc3n3cnnc23)c1`, 9.11%; under `O=C(O)C(=O)O.c1ccc(-c2cnc(SCCN3CCOCC3)n2CC2CCCO2)cc1` (stereo not shown), 6.56%. `COc1ccc(N2CCN(CCc3ccncc3)CC2)cc1`: the “hERG current change (%, negative = inhibition) at 1uM” value amounted to 2.04%. For `O=C(CCNC(=O)c1ccccc1Cl)Nc1cccc(S(=O)(=O)N2CCCC2)c1` the value was 11%; for `COc1cccc(CNC(=O)C2CCCN(S(=O)(=O)c3c(C)n[nH]c3C)C2)c1` (stereo not shown), 3.37%. Under `CCOCCc1nnc(NC(=O)Cc2c(F)cccc2Cl)s1` stands 5.3%. Under `COc1ccc(CN2CCCC(C(=O)N3CCCC3)C2)c(OC)c1.O=C(O)C(=O)O` (stereo not shown) stands 8.35%; under `O=C(Nc1cccc(-c2cn3cccnc3n2)c1)c1ccc(Br)o1`, 6.03%.

As for `COCCCNS(=O)(=O)c1ccc2[nH]c(=O)[nH]c2c1`, the “hERG current change (%, negative = inhibition) at 1uM” value is -0.626%. Under `O=C(Nc1ccc2oc(-c3cccc4ccccc34)nc2c1)c1ncn[nH]1` stands 5.11%. For `CCOC(=O)C1CCCN(C(=O)c2ccc(C)c([N+](=O)[O-])c2)C1` (stereo not shown) the value was 9.1%. For `Cc1cc(NS(=O)(=O)c2ccc(NC(=O)C3CCCCC3)cc2)no1` the value was 16.4%; for `COc1cccc(C(=O)N/N=C(\C)CC(=O)Nc2ccc(N(C)C)cc2)c1`, 15.3%.
